Assay results from patent US8969570B2, “Beta-lactamase inhibitors” (priority 2012, dated 2015).
Counter-ions that a name gives are not always drawn. Some entries share one result that the patent states for a list of compounds. At least one compound was matched to its structure with a doubt left.

Target: KPC-2 β-lactamase (Klebsiella pneumoniae, UniProt Q9F663)
Experiment: Inhibition kinetics of KPC-2 with nitrocefin reporter substrate
Format: biochemical, K. pneumoniae
Conditions: KPC-2, 100 μM nitrocefin, 1×PBS pH 7.4, 25° C.

Chain of KPC-2 β-lactamase (Q9F663 25-293 limits assumed): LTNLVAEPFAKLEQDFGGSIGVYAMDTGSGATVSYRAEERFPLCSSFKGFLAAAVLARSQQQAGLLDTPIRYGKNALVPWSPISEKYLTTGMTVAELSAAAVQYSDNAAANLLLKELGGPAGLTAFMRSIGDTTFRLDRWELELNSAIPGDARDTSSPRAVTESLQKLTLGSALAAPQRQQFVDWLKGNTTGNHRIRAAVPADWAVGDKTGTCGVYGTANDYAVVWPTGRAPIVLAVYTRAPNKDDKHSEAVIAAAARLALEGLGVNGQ

| SMILES | binding affinity for the β-lactamase enzyme (kinact/K) |
| --- | --- |
| O=C1N2C[C@@H](CC[C@H]2c2ccon2)N1OS(=O)(=O)O [Compound 101, (2S,5R)-2-(isoxazol-3-yl)-7-oxo-1,6-diazabicyclo[3.2.1]octan-6-yl hydrogen sulfate] | 100000 to 999000 M⁻¹ s⁻¹ |
| N#Cc1cc([C@@H]2CC[C@@H]3CN2C(=O)N3OS(=O)(=O)O)no1 [Compound 102, (2S,5R)-2-(5-cyanoisoxazol-3-yl)-7-oxo-1,6-diazabicyclo[3.2.1]octan-6-yl hydrogen sulfate] | 1e+06 to 5e+06 M⁻¹ s⁻¹ |
| NC(=O)c1cc([C@@H]2CC[C@@H]3CN2C(=O)N3OS(=O)(=O)O)no1 [Compound 103, (2S,5R)-2-(5-carbamoylisoxazol-3-yl)-7-oxo-1,6-diazabicyclo[3.2.1]octan-6-yl hydrogen sulfate] | 1e+06 to 5e+06 M⁻¹ s⁻¹ |
| Cc1nnc([C@@H]2CC[C@@H]3CN2C(=O)N3OS(=O)(=O)O)o1 [Compound 200, (2S,5R)-2-(5-methyl-1,3,4-oxadiazol-2-yl)-7-oxo-1,6-diazabicyclo[3.2.1]octan-6-yl hydrogen sulfate] | 100000 to 999000 M⁻¹ s⁻¹ |
| CCc1nnc([C@@H]2CC[C@@H]3CN2C(=O)N3OS(=O)(=O)O)o1 [Compound 201, (2S,5R)-2-(5-ethyl-1,3,4-oxadiazol-2-yl)-7-oxo-1,6-diazabicyclo[3.2.1]octan-6-yl hydrogen sulfate] | 100000 to 999000 M⁻¹ s⁻¹ |
| O=C1N2C[C@@H](CC[C@H]2c2nnc(CO)o2)N1OS(=O)(=O)O [Compound 202, (2S,5R)-2-(5-(hydroxymethyl)-1,3,4-oxadiazol-2-yl)-7-oxo-7-oxo-1,6-diazabicyclo[3.2.1]octan-6-yl hydrogen sulfate] | 1000 to 99000 M⁻¹ s⁻¹ |
| CNc1nnc([C@@H]2CC[C@@H]3CN2C(=O)N3OS(=O)(=O)O)o1 [Compound 203, (2S,5R)-2-(5-(methylamino)-1,3,4-oxadiazol-2-yl)-7-oxo-1,6-diazabicyclo[3.2.1]octan-6-yl hydrogen sulfate] | 1000 to 99000 M⁻¹ s⁻¹ |
| CN1CCC(c2nnc([C@@H]3CC[C@@H]4CN3C(=O)N4OS(=O)(=O)O)o2)CC1 [Compound 204, (2S,5R)-2-(5-(1-methylpiperidin-4-yl)-1,3,4-oxadiazol-2-yl)-7-oxo-1,6-diazabicyclo[3.2.1]octan-6-yl hydrogen sulfate] | 100000 to 999000 M⁻¹ s⁻¹ |
| CN1CCN(c2nnc([C@@H]3CC[C@@H]4CN3C(=O)N4OS(=O)(=O)O)o2)CC1 [Compound 205, (2S,5R)-2-(5-(4-methylpiperazin-1-yl)-1,3,4-oxadiazol-2-yl)-7-oxo-1,6-diazabicyclo[3.2.1]octan-6-yl hydrogen sulfate] | 100000 to 999000 M⁻¹ s⁻¹ |
| O=C1N2C[C@@H](CC[C@H]2c2nnc(C3CNCCO3)o2)N1OS(=O)(=O)O (stereo partly drawn) [Compound 206, (2S,5R)-2-(5-(morpholin-2-yl)-1,3,4-oxadiazol-2-yl)-7-oxo-1,6-diazabicyclo[3.2.1]octan-6-yl hydrogen sulfate] | 100000 to 999000 M⁻¹ s⁻¹ |
| O=C1N2C[C@@H](CC[C@H]2c2nncs2)N1OS(=O)(=O)O [Compound 300, (2S,5R)-7-oxo-2-(1,3,4-thiadiazol-2-yl)-1,6-diazabicyclo[3.2.1]octan-6-yl hydrogen sulfate] | 100000 to 999000 M⁻¹ s⁻¹ |
| NCc1nnc([C@@H]2CC[C@@H]3CN2C(=O)N3OS(=O)(=O)O)s1 [Compound 301, (2S,5R)-2-(5-(aminomethyl)-1,3,4-thiadiazol-2-yl)-7-oxo-1,6-diazabicyclo[3.2.1]octan-6-yl hydrogen sulfate] | 100000 to 999000 M⁻¹ s⁻¹ |
| O=C1N2C[C@@H](CC[C@H]2c2nnc(N3CCNCC3)s2)N1OS(=O)(=O)O [Compound 302, (2S,5R)-7-oxo-2-(5-(piperazin-1-yl)-1,3,4-thiadiazol-2-yl)-1,6-diazabicyclo[3.2.1]octan-6-yl hydrogen sulfate] | 100000 to 999000 M⁻¹ s⁻¹ |
| Cc1noc([C@@H]2CC[C@@H]3CN2C(=O)N3OS(=O)(=O)O)n1 [Compound 400, (2S,5R)-2-(3-methyl-1,2,4-oxadiazol-5-yl)-7-oxo-1,6-diazabicyclo[3.2.1]octan-6-yl hydrogen sulfate] | 100000 to 999000 M⁻¹ s⁻¹ |
| NC(=O)c1noc([C@@H]2CC[C@@H]3CN2C(=O)N3OS(=O)(=O)O)n1 [Compound 401, (2S,5R)-2-(3-carbamoyl-1,2,4-oxadiazol-5-yl)-7-oxo-1,6-diazabicyclo[3.2.1]octan-6-yl hydrogen sulfate] | 100000 to 999000 M⁻¹ s⁻¹ |
| CCOC(=O)c1noc([C@@H]2CC[C@@H]3CN2C(=O)N3OS(=O)(=O)O)n1 [Compound 402, ethyl 5-((2S,5R)-7-oxo-6-(sulfooxy)-1,6-diazabicyclo[3.2.1]octan-2-yl)-1,2,4-oxadiazole-3-carboxylate] | 100000 to 999000 M⁻¹ s⁻¹ |
| O=C1N2C[C@@H](CC[C@H]2c2ncns2)N1OS(=O)(=O)O [Compound 500, (2S,5R)-7-oxo-2-(1,2,4-thiadiazol-5-yl)-1,6-diazabicyclo[3.2.1]octan-6-yl hydrogen sulfate] | 100000 to 999000 M⁻¹ s⁻¹ |
